# Data: PubChem BioAssay AID686978 (National Center for Advancing Translational Sciences (NCATS), 2013)
# Hit rate of the full screen: of about 420,000 compounds, about 64,000 (15%) were called active. The shares of active, inactive and inconclusive entries below differ from those in the screen. Calls come from the whole dose curve; as a rule, active = well fitted inhibition curve with a large enough effect; inconclusive = small, poorly fitted or top-dose-only effect; inactive = flat fitted curve, though single readings scatter. No potency is given beside an inconclusive call; the fits are too rough.
# Experiment: qHTS for Inhibitors of human tyrosyl-DNA phosphodiesterase 1 (TDP1): qHTS in cells in absence of CPT; note: nearly all actives have a fitted effect of over 55% in size
# Details: DT40 Tdp1-/- hTDP1 cells, no CPT, ATP luminescence, 48 h; activity change, negative = growth inhibition: at 46.2 µM (top of the series) unless noted
# In short: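 Luminescent ATP content (CellTiter-Glo) served as the growth readout. Knockout chicken DT40 cells expressing human TDP1 were exposed to compounds without camptothecin for a minimum 48 hr at 37 °C.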
# % is set by controls: 0 for no effect and ±100 for the full control effect; potency is the fitted concentration of half-maximal effect; tags give direction and shape of the fitted curve.
Compound,Potency,"activity change, negative = growth inhibition"
COc1ccc(-c2[nH]ncc2-c2ccc(Cl)cc2)c(O)c1,"inconclusive [inhibitor, single point]",–
Cc1ccc2c(c1)OC(c1ccc3c(c1)OCCO3)CC2=O (stereo unspecified),"inconclusive [inhibitor, partial curve]",–
Cn1ccnc1Sc1ccc(/C=N/NC(=O)c2ccccc2O)cc1[N+](=O)[O-],inactive,–
CN(C)c1ccc(-c2ccnc3c2CC(C)(C(=O)Nc2ccc(Cl)c(C(F)(F)F)c2)O3)cc1 (stereo unspecified),active: 5.17 µM,–
Cc1ccc(-c2noc(CSc3nnc(C)n3-c3ccc(C)c(C)c3)n2)cc1,"inconclusive [inhibitor, single point]",–
c1ccc2c(c1)OCC(CNCC1COc3ccccc3O1)O2 (stereo unspecified),inactive,–
CC(C)CN(C(=O)CSc1nnc(-c2ccco2)o1)c1c(N)n(Cc2ccccc2)c(=O)[nH]c1=O,inactive,–
Cc1nnc2ccc(-c3ccc(NS(=O)(=O)c4ccc(F)cc4F)cc3)nn12,"inconclusive [inhibitor, single point]",–
COc1ccc(Cl)cc1NC(=O)CSc1ccc2nnc(CCNS(=O)(=O)c3ccccc3)n2n1,"inconclusive [inhibitor, single point]",–
COc1ccc(NC(=O)CSc2nnc(C3CC3)n2C)cc1S(=O)(=O)N1CCCCC1,inactive,–
N#C/C(=C\c1cccnc1)c1ccc([N+](=O)[O-])cc1,"inconclusive [inhibitor, single point]",–
Cc1cc(C(=O)NC2CCCCCC2)c2ccccc2n1,inactive,–
O=S(=O)(NCCn1ccc2ccccc21)c1ccccc1,"inconclusive [inhibitor, single point]",–
COc1ccc(OCCSc2nc(N)cc(N)n2)cc1,–,inconclusive: -33.6% [inhibitor]
O=S(=O)(c1ccc2ccccc2c1)N(CC(O)CN1CCOCC1)c1ccccc1 (stereo unspecified),"inconclusive [inhibitor, single point]",–
Cc1ccc(NC(=O)CN2C(=O)NC3(CCc4ccccc43)C2=O)cc1Cl (stereo unspecified),active: 25.9 µM,–
O=C1c2ccccc2C(=O)N1Cc1cc(-c2ccc(Cl)cc2)no1,inactive,–
COc1ccc(/C=C(\C#N)c2nc3ccccc3c(=O)[nH]2)cc1OC,active: 18.4 µM,–
O=C(Cn1nnc(-c2ccc([N+](=O)[O-])cc2)n1)NNC(=O)c1ccccc1,inactive,–
O=C(OCC#CCSc1nnc(-c2ccc(Br)cc2)o1)c1cccs1,"inconclusive [inhibitor, partial curve]",–
CCOC(=O)CCc1c(C)nc2cc(-c3ccc(Cl)cc3)[nH]n2c1=O,inactive,–
CCOc1ccc(S(=O)(=O)Nc2ccc3oc4c(c3c2)CC(C)CC4)cc1 (stereo unspecified),"inconclusive [inhibitor, single point]",–
COc1ccccc1CNC(=O)COCc1cc(-c2ccc3c(c2)OCO3)on1,"inconclusive [inhibitor, partial curve]",–

Compound,Potency,"activity change, negative = growth inhibition"
O=C(COC(=O)Cc1n[nH]c(=O)c2ccccc12)Nc1c(Br)cc([N+](=O)[O-])cc1Br,inactive,–
COc1ccc(NS(=O)(=O)c2cccc3ccccc23)cc1,"inconclusive [inhibitor, single point]",–
O=C(CNS(=O)(=O)c1cccc(C(F)(F)F)c1)Nc1ccccc1F,inactive,–
CNC(=O)NC(=O)C(OC(=O)c1cccc(S(=O)(=O)N2CCCCC2)c1)c1ccccc1 (stereo unspecified),inactive,–
O=C(NNS(=O)(=O)c1ccc(Cl)cc1)c1cccc(S(=O)(=O)N2CCOCC2)c1,inactive,–
CCOc1ccc(-n2c(O)c(/C=N/NC(=O)C3COc4ccccc4O3)c3ccccc3c2=O)cc1 (stereo unspecified),"inconclusive [inhibitor, single point]",–
CC(C)CN(CC(C)C)CC(O)Cn1cc(/C=C/C(=O)c2ccccc2)c2ccccc21 (stereo unspecified),active: 4.61 µM,–
Cc1cccc2cc(COC(=O)c3cccnc3)c(=O)[nH]c12,inactive,–
C#CCOCCOCCOCCNc1nc(N2CCN(C(=O)[C@H](CCC(=O)O)n3cc(C(N)CO)nn3)CC2)nc(N2CCN(C(=O)[C@H](CCC(=O)O)n3cc(C(N)[C@H](C)CC)nn3)CC2)n1 (stereo partly specified),inactive,–
CCCCNC(=O)C1(C)CCC(=O)N1CCc1c[nH]c2ccccc12 (stereo unspecified),inactive,–
O=C(Nc1ccccc1Cl)c1ccccc1CC(O)(c1ccccc1)c1ccccc1,"inconclusive [inhibitor, single point]",–
O=C(COc1ccc(F)cc1)OCc1cc(=O)n2nc(-c3cccs3)sc2n1,"inconclusive [inhibitor, partial curve]",–
Cc1cc(Cl)ccc1Nc1nc(NCc2ccco2)nc2nccnc12,"inconclusive [inhibitor, single point]",–
CC(=O)Nc1ccc(NC(=O)COC(=O)c2ccc([N+](=O)[O-])o2)cc1,"inconclusive [inhibitor, full curve]",–
COc1ccc(CNC(=O)C2CCN(C(=O)Cc3ccccc3)CC2)cc1,inactive,–
C[C@H](NC(=O)c1ncn(C)c1C(=O)N[C@@H](C)c1ccccc1)c1ccccc1,inactive,–
COc1ccc(CN(C)CC(O)COc2ccc(-c3ccccc3)cc2)cc1OC (stereo unspecified),"inconclusive [inhibitor, single point]",–
COc1cc(NS(=O)(=O)c2c(C)nc3sc(C)c(C)n3c2=O)cc(OC)c1,"inconclusive [inhibitor, full curve, poor fit]",–
Cc1ccc(C(=O)Nc2cccc(S(=O)(=O)N3CCOCC3)c2)cc1[N+](=O)[O-],"inconclusive [inhibitor, partial curve]",–
O=C(NCCCn1ccnc1)C(=O)NCC1OCCN1S(=O)(=O)c1ccc2c(c1)OCCO2 (stereo unspecified),inactive,–
Cc1nnsc1C(=O)NNc1ccc(C(C)(C)C)cc1,"inconclusive [inhibitor, single point]",–
COc1ccc(CN2C(=O)/C(=C/c3ccncc3)SC2=S)cc1,active: 9.2 µM,–
CC(NC(=O)Nc1ccc([N+](=O)[O-])cc1)C(c1ccccc1)N1CCOCC1 (stereo unspecified),"inconclusive [inhibitor, single point]",–
